Measurements from publication PMC4336329 (PLoS ONE, 2015).
Screen size: about 310,000 compounds; about 14,000 (4.5%) showed an effect of 50% or more. Effects have a minus sign here. This is one part of the list.

Biological target: human ether-à-go-go-related gene (hERG) potassium channel (human, UniProt Q12809)
Assay: primary screen, population patch clamp on CHO cells stably expressing hERG
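Further: peak tail current of the secondary pulse compared with the same well before compound.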

Sequence of human ether-à-go-go-related gene (hERG) potassium channel (Q12809 whole entry, looked up): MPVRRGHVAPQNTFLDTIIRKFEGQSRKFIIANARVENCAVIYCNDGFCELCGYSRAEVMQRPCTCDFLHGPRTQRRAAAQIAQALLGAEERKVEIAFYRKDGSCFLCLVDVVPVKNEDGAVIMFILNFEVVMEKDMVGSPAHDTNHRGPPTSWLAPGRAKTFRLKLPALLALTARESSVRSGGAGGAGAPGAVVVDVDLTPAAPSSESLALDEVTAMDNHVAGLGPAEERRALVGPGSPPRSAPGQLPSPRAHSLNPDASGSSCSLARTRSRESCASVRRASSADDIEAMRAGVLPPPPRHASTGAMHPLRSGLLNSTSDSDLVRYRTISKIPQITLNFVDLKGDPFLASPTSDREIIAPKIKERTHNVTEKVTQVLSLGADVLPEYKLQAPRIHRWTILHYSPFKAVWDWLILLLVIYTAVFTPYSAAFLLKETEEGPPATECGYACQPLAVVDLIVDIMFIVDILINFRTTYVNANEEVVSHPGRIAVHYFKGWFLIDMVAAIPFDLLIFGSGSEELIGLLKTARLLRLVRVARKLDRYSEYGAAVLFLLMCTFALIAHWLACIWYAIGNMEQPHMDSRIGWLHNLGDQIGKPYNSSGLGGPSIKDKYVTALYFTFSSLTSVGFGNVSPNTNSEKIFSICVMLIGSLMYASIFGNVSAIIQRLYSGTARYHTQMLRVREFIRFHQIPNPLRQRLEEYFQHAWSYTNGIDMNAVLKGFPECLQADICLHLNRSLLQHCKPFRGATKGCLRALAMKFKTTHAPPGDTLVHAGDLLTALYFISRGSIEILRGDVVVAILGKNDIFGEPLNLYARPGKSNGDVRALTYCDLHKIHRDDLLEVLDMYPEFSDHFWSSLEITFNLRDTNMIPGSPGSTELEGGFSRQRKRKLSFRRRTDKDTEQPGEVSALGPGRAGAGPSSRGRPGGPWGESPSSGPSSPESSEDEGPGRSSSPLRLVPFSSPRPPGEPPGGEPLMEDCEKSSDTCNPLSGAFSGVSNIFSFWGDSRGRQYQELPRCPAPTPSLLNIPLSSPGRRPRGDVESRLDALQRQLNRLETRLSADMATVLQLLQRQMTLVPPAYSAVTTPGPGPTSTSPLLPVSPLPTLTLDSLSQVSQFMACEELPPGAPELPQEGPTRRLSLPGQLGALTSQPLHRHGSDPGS

Row | SMILES | hERG current change (%, negative = inhibition) at 10uM
1 | COC(=O)c1cc(C(=O)N2CCc3ccccc32)cc([N+](=O)[O-])c1 | -9.72%
2 | CCCN(C(=O)c1ccco1)c1nnc(-c2ccncc2)s1 | -20.9%
3 | COc1ccc(OC)c(NC(=O)N[C@H](Cc2ccccc2)C(=O)NN)c1 | 12.1%
4 | COc1ccc(OC)c(C(C)NC(=O)Nc2ccccc2)c1 (stereo not shown) | 4.8%
5 | CCOC(=O)N1CCN(C(=O)CSCc2ccccc2C)CC1 | 2.96%
6 | Cc1cccc(C)c1NC(=O)CCn1cnc2ccccc2c1=O | 12.6%
7 | CC(C)Cc1cc(C(=O)N2CCCC(CO)(Cc3ccc(F)cc3)C2)no1 (stereo not shown) | -10.6%
8 | COc1cccc(OCC(O)CN2CCN(c3ccccn3)CC2)c1.Cl (stereo not shown) | -12.7%
9 | Cc1c(NC(=O)c2ccc(S(=O)(=O)N(C)c3ccccc3)cc2)c(=O)n(-c2ccccc2)n1C | 34%
10 | Cc1ccc2nc(N3C(=O)CNC3=S)sc2c1 | 30%
11 | COc1cccc(NC(=S)Nc2cc(C(=O)O)ccc2N2CC3CC(C2)c2cccc(=O)n2C3)c1 (stereo not shown) | 11.4%
12 | S=C(Nc1ccccc1)N1CCn2c1nc1ccccc12 | -11.9%
13 | CCOC(=O)c1ccc(NC(=O)Nc2ccon2)cc1 | 6.02%
14 | O=C(c1ccc(NS(=O)(=O)c2ccc3[nH]c(=O)[nH]c3c2)cc1)N1CCCCC1 | 2.67%
15 | O=C(NCC1CCCO1)c1ccc2c(=O)n(CC3CCCO3)c(SCC(=O)N3CCCC3)nc2c1 (stereo not shown) | 3.95%
16 | CNC(=S)Nc1cccc([N+](=O)[O-])c1 | -14.6%
17 | Nc1nnc(CC(=O)N/N=C/c2ccc(-c3ccccc3Cl)o2)s1 | 3.77%
18 | O=C(Cn1c(=O)[nH]c2ccccc2c1=O)Nc1ccc2c(c1)OCCO2 | 7.87%
19 | Cc1cccc(CN2CCN(CC(C)C)C(CCO)C2)n1 (stereo not shown) | 17.7%
20 | CN1CCN(C(=O)/C=C/c2cccc(Cl)c2)CC1 | -6.45%
21 | Cc1nnc(SCC(=O)NC(C)(C)C)n1NCc1cccc(Br)c1 | -6.68%
22 | COc1cccc(NC(=O)CCSc2ccc3ccccc3n2)c1 | -13%

Row | SMILES | hERG current change (%, negative = inhibition) at 10uM
23 | O=C(Nc1ccc2oc(-c3ccccc3)nc2c1)c1ccccc1F | -4.55%
24 | Cc1cc(N2CCN(C)CC2)ccc1NC(=O)c1ccc(-c2ccc(Cl)cc2)o1 | -80%
25 | O=C1NC(c2ccccc2)=C(c2ccc3ccccc3n2)C(c2ccc(F)cc2)N1 (stereo not shown) | -5.34%
26 | CCNS(=O)(=O)c1ccc(CCC(=O)N2CCN(c3ccc(OC)cc3)CC2)cc1 | -8.99%
27 | CCN(CC(=O)Nc1ccc2c(c1)OCCO2)S(=O)(=O)c1ccc(C)cc1 | -0.501%
28 | CC(C)OC(=O)CSc1nc(N)c(C#N)c(-c2cccs2)c1C#N | 10.8%
29 | Cc1ccc(NC(=O)C(C)N2C(=O)c3ccccc3C2=O)nc1 (stereo not shown) | 28.5%
30 | CCN(CC)C(=O)CC(c1ccccc1)c1ccco1 (stereo not shown) | 1.85%
31 | COc1ccc(N)cc1S(=O)(=O)Nc1ccccc1Cl | 18.9%
32 | O=c1c(C/C=C/c2ccccc2)c(O)ccn1CCc1c[nH]c2ccccc12 | 5.72%
33 | O=C(O)CCCC(=O)Nc1ccc(Cl)cc1 | 21.6%
34 | CC(C)C(NC(=O)c1cccc(S(=O)(=O)N2CCOCC2)c1)C(=O)NCc1ccc(Cl)cc1 (stereo not shown) | 4.43%
35 | O=C(COc1ccccc1Cl)Nc1ccccc1C(=O)NC1CC1 | -14.9%
36 | COc1ccc(OC2CCN(S(=O)(=O)c3cccc(F)c3)CC2)cc1 | -5.81%
37 | CC(=O)c1cccc(NC(=O)CNC(=O)c2cc3ccccc3o2)c1 | -33%
38 | Cc1ccccc1N(C(=O)CNC(=O)c1ccco1)C(C(=O)NC1CCCCC1)c1ccncc1 (stereo not shown) | -0.457%
39 | CN1C(C(=O)NCc2cccc(C(F)(F)F)c2)CC2Cn3c(nc4cc5ccccc5cc43)C21 (stereo not shown) | -63.1%
40 | COc1ccc(CNc2ncc(-c3ccccc3)n2C)c2ccccc12.O=C(O)C(=O)O | -34.5%
41 | COc1cccc(NC(=O)Cn2cc(C#N)c3ccccc32)c1 | 1.69%
42 | Cc1ccc(C(=O)OCC(=O)N(C)c2ccccc2)c(C)c1 | 19.8%
43 | COc1cc2c(C(=O)NCc3ccccn3)cn(CC(C)C)c(=O)c2cc1OC | -3.21%
44 | COCCOc1cc(N)c(Cl)cc1Cl | 15.5%

Row | SMILES | hERG current change (%, negative = inhibition) at 10uM
45 | CC(=O)Nc1ccc(S(=O)(=O)Nc2ccc(S(=O)(=O)N3CCCCCC3)cc2)cc1 | 5.32%
46 | O=S(=O)(c1ccc(Cl)s1)N1CCCc2cccc(O)c21 | 11.9%
47 | COc1ccc(N2C=C3C(=O)C(C)(OC(=O)CCc4ccccc4)C(=O)C=C3C=C2c2ccc(C#N)cc2)cc1 (stereo not shown) | 7.77%
48 | Cc1ccc(NC(=O)CSc2nc(-c3ccco3)cc(C(F)(F)F)n2)cc1C | -3.9%
49 | CCOCCOC(=O)c1ccc(-n2cnc(C)n2)nc1 | 16.3%
50 | COc1cc(CN2CC(=O)N(c3cccc(Cl)c3C)C2=S)cc(OC)c1OC | 8.69%
51 | Cc1sc(NC(=O)CSc2nnc(-c3ccccc3)o2)c(C#N)c1C | 8.85%
52 | CCOc1cc(-c2nn3cnnc3s2)cc(OCC)c1OCC | -15.4%
53 | CCCCNCC1C(Oc2ccc(Cl)cc2)C(=O)N1c1ccccc1C.Cl (stereo not shown) | -65.9%
54 | Cc1ccc(C(=O)Nc2cccnc2)cc1Cl | 4.54%
55 | CCOc1ccc(NC(=O)CCNS(=O)(=O)c2ccc3c(c2)CC(C)N3C(C)=O)cc1 (stereo not shown) | 6.98%
56 | CC1CCCC(NC(=O)COC(=O)c2cccc(NS(=O)(=O)/C=C/c3ccccc3)c2)C1C (stereo not shown) | 5.35%
57 | CN(C)S(=O)(=O)c1ccc2[nH]cc(/C=C/c3nc4ccccc4c(=O)n3-c3ccccc3)c2c1 | 14.6%
58 | Cc1ccc2cc(-c3noc(C4CCCCC4)n3)c(=O)[nH]c2c1 | 19%
59 | Cc1onc(-c2c(F)cccc2Cl)c1C(=O)OCC(=O)NC(c1ccccc1)c1ccccc1 | -13.9%
60 | CN1CCN/C1=C(/C(Cl)=C(Cl)Cl)[N+](=O)[O-] | 25.9%
61 | Cc1ccc(CN(C#N)c2nc(C)cc(C)n2)cc1 | -4.91%
62 | NS(=O)(=O)c1ccc(NC(=S)NCc2ccccc2Cl)cc1 | 20.5%
63 | COc1cc(OC)c(C2CC(=O)N3CN(c4ccc(C)cc4)CSC3=C2C#N)cc1OC (stereo not shown) | 1.16%
64 | CCN(CC)CCN(C(=O)c1ccc(S(=O)(=O)N2CCCCC2)cc1)c1nc2cc3c(cc2s1)OCO3.Cl | -37.6%
65 | CCOc1ccc(S(=O)(=O)Nc2cnc3ccccc3c2)cc1 | 2.82%
66 | CCC(C(=O)NC1CCCC1)N(C(=O)Cn1nnc(-c2cccs2)n1)c1cnc2ccccc2c1 (stereo not shown) | 9.1%

Row | SMILES | hERG current change (%, negative = inhibition) at 10uM
67 | CN(C)c1ccc(C(=S)N2CCN(c3ccc([N+](=O)[O-])cc3)CC2)cc1 | -18.7%
68 | CC1=C(C(=O)OCc2ccccc2)C(c2ccccc2OS(=O)(=O)c2ccc([N+](=O)[O-])cc2)NC(=O)N1CCCC(=O)O (stereo not shown) | -49.7%
69 | CC(C)Oc1ccc(S(=O)(=O)N2CCOCC2)cc1NC(=O)C1CCCCC1 | -19.6%
70 | COC(=O)C1=CO[C@@H](C)[C@H]2CN3CCc4c([nH]c5ccccc45)[C@@H]3C[C@H]12.Cl | -20.2%
71 | Cc1ccc(NS(=O)(=O)c2ccc(NC(=O)c3cccs3)cc2)c(C)c1 | -14.8%
72 | N/C(CSc1nc(-c2ccccc2)c(-c2ccccc2)o1)=N\O | -35.3%
73 | CC(=O)c1ccc(N2CCN(C(=O)c3ccc(C(=O)c4ccccc4)cc3)CC2)cc1 | -11.7%
74 | O=C(COc1ccc(Br)cc1)N(CCO)CCO | -1.44%
75 | CCC(=O)NCCc1nc2cc(NC(=O)c3cccc([N+](=O)[O-])c3)ccc2n1C | 5.11%
76 | Cc1ccc(C(=O)N2CCN(c3cccc(C)c3C)CC2)cc1S(=O)(=O)N1CCOCC1 | -29.8%
77 | CCOC(=O)C1=C(C)Nc2ccccc2N/C1=N\S(=O)(=O)c1cccc(Cl)c1 | 0.773%
78 | COc1ccc2c(C(=O)CN3CCN(CCO)CC3)c[nH]c2c1 | -1.03%
79 | O=C(O)CNc1nc(-c2ccccc2)c2cc([N+](=O)[O-])ccc2n1 | 5.22%
80 | O=[N+]([O-])c1cc(-c2n[nH]c(-c3ccccc3)n2)cc([N+](=O)[O-])c1 | 14.5%
81 | O=C(Nc1ccccn1)c1cccs1 | -10.4%
82 | CN(C)CCCNC(=O)/C=C/c1ccc2c(c1)OCO2 | -10.4%
83 | CCn1c(CC(=O)Nc2ccc(C)c(Cl)c2)nnc1SCc1ccc(Cl)c(Cl)c1 | -1.33%
84 | Cc1ccccc1-c1nnc2c3ccccc3c(C)nn12 | -6.8%
85 | Cc1ccc(-c2nnc(SCC(=O)N3CCCc4ccccc43)n2N)cc1 | -13.8%
